Results as given in PubChem BioAssay AID624170 (National Center for Advancing Translational Sciences (NCATS), 2012).
The campaign covered roughly 410,000 compounds. About 850 (0.21%) were called active. Inconclusive means that the source gave no clear call. Such entries were picked first, then a sample of the others. The call rests on the fitted dose curve; in most records, active means well fitted inhibition curve with a large enough effect; inconclusive means small, poorly fitted or top-dose-only effect, or another doubt; inactive means no such curve, though single readings can be large or run the other way. No potency is given beside an inconclusive call; the fits are too rough.

These compounds were tested against Glutaminase kidney isoform, mitochondrial (Homo sapiens) (UniProt O94925) (assay: qHTS for Inhibitors of Glutaminase (GLS)). Conditions: GLS enzymatic activity, qHTS titration; series mostly up to 45.5 µM; activity change, negative = inhibition: at the top concentration.
UniProt O94925, sequence (O94925 whole entry, looked up, canonical isoform): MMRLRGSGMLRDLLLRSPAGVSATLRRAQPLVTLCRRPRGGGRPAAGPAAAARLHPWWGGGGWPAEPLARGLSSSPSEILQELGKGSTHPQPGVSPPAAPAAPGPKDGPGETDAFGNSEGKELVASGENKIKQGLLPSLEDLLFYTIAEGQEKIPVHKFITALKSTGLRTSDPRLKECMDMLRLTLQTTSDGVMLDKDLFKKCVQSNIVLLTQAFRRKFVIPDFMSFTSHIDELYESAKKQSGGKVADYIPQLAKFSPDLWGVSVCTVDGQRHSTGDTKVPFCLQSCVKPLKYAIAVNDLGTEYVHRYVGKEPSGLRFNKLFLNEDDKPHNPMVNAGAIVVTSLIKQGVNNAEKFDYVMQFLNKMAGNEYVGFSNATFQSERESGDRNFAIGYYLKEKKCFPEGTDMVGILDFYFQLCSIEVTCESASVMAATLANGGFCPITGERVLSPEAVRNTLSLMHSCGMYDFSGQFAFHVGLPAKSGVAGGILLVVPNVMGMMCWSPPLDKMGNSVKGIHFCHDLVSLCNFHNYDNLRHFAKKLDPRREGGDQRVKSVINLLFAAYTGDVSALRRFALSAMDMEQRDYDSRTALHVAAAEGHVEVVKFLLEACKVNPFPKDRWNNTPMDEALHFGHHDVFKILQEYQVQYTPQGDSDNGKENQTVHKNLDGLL
Method in brief: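 Two-point fluorescence kinetic (t0, 30 min RT) for hKGA; glutamate detected via glutamate oxidase–HRP–Amplex Red. Substrate: 1 mM L-glutamine solution; buffer 45 mM KH2PO4, pH 8.2.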
On the % scale 0 is the no-effect control and ±100 the full control effect; potency means the concentration at half of the fitted maximal effect; tags describe the fitted curve by direction and shape.

`COc1ccc(Cl)cc1C(=O)NNC(=O)c1cccnc1` was tested. Which Potency did it give?
The Potency was inconclusive [inhibitor, partial curve].

With `CN(C)N1C(N)=C(C#N)C(c2cccnc2)C2=C1CCCC2=O` (configuration not stated) as the compound, how does the Potency read?
The Potency was inconclusive [inhibitor, single point].

For `CCC(CO)Oc1cc(NC(=O)c2cccc3ccccc23)c2ncn(C(C)C)c2c1` (configuration not stated), which Potency is on record?
Its Potency is inconclusive [inhibitor, partial curve].

`N#Cc1c(NC(=O)COC(=O)c2ccc(O)cc2O)sc2c1CCC2` was tested. Which Potency did it give?
The Potency was inconclusive [inhibitor, single point].

With `CCC(Sc1nnnn1C)C(=O)Nc1ccc(C(C)=O)cc1` (configuration not stated) as the compound, how does the Potency read?
Its Potency is inconclusive [inhibitor, partial curve, poor fit].

`COc1ccccc1CNC(=O)C1CCC(CNS(=O)(=O)c2ccccc2)CC1` (configuration not stated) was tested. Which Potency did it give?
The Potency was inconclusive [inhibitor, single point].

`CCOc1cc(/C=N\NC(=O)Cn2nnc3ccccc32)ccc1O` was tested. Which Potency did it give?
The Potency was inconclusive [inhibitor, single point].

With `CCNC(=O)[C@@H]1CCCN1C(=O)[C@H](CCCN=C(N)N)NC(=O)[C@H](CC(C)C)NC(=O)[C@@H](Cc1c[nH]c2ccccc12)NC(=O)[C@H](Cc1ccc(O)cc1)NC(=O)[C@H](CO)NC(=O)[C@H](Cc1c[nH]c2ccccc12)NC(=O)[C@H](Cc1cnc[nH]1)NC(=O)[C@@H]1CCC(=O)N1` as the compound, how does the Potency read?
Its Potency is inconclusive [inhibitor, partial curve].

For `C/C(=N\Nc1ccccn1)c1ccc(C#N)cc1`, which Potency is on record?
The Potency was inconclusive [inhibitor, single point].

For `CCn1c(=O)cc(OCC(=O)NCc2ccco2)c2ccccc21`, which “activity change, negative = inhibition” value is on record?
Its value is inactive: -2.62%.

Which Potency does the source give for `O=C(O)CN1C(=O)/C(=C2\C(=O)N(Cc3ccccc3Cl)c3ccccc32)SC1=S` here?
The Potency was inconclusive [inhibitor, single point].

How did the Potency turn out when `CCC(=O)Nc1cccc(C(=O)OC)c1` was run?
The Potency was inconclusive [inhibitor, single point].

For `Cc1nc2c(C(=O)NCCC(C)C)c[nH]n2c(=O)c1Cl`, which Potency is on record?
The Potency was inconclusive [inhibitor, single point].

With `CC12CCC(=O)C=C1CCC1C2CCC2(C)C1CC1C3C(=O)N(Cc4ccccc4)C(=O)C3CC(=O)C12` (configuration not stated) as the compound, how does the “activity change, negative = inhibition” value read?
Its value is inactive: 0.369%.

For `COc1ccccc1C(=O)N/N=C(\C)CC(=O)Nc1ccc(Nc2ccccc2)cc1`, which Potency is on record?
Its Potency is inconclusive [inhibitor, partial curve].

How did the Potency turn out when `COc1cc(N=Nc2ccc(C)cc2S(N)(=O)=O)c(C)cc1N` was run?
The Potency was inconclusive [inhibitor, single point].

Which Potency does the source give for `COc1ccccc1N1C(=O)C(Cl)=C(Nc2ccccc2O)C1=O` here?
Its Potency is inconclusive [inhibitor, single point].

How did the Potency turn out when `C=CCOc1ccc(/C=C2\C(=N)N3N=C(S(=O)(=O)CC)SC3=NC2=O)cc1OC` was run?
Its Potency is inconclusive [inhibitor, single point].

For `O=C(CN1CCN(Cc2ccccc2)CC1)Nc1nc2ccccc2s1`, which “activity change, negative = inhibition” value is on record?
The value was inactive: 4.21%.

With `c1coc(CSSCc2ccco2)c1` as the compound, how does the “activity change, negative = inhibition” value read?
The value was inactive: -10.5%.

For `CCOc1ccc(OCC)c(Nc2cc(C)nc3nc(-c4ccco4)nn23)c1`, which “activity change, negative = inhibition” value is on record?
The value was inactive: 14.2%.

With `CCOC(=O)N=S(N)(=O)c1ccc(Cl)cc1` (configuration not stated) as the compound, how does the Potency read?
The Potency was inconclusive [inhibitor, single point].

Which “activity change, negative = inhibition” value does the source give for `N#Cc1ncc(Cc2ccccc2)nc1C#N` here?
Its value is inactive: -3.08%.

For `O=S(=O)(c1ccccc1)N1N=C(c2ccc(Br)cc2)CC1c1ccco1` (configuration not stated), which Potency is on record?
Its Potency is inconclusive [inhibitor, single point].

With `CCNc1ccc(S(=O)(=O)N(C)C)cc1NCC(=O)Nc1ccccc1Br` as the compound, how does the Potency read?
Its Potency is inconclusive [inhibitor, single point].

For `CCN1C(=O)/C(=c2\o/c(=C3\C=Cc4ccccc4N3CC)c(=O)n2CC)SC1=S`, which Potency is on record?
Its Potency is inconclusive [inhibitor, single point].

For `CSCCC(C(=O)OC1CCOC1=O)N1C(=O)c2ccccc2C1=O` (configuration not stated), which “activity change, negative = inhibition” value is on record?
The value was inactive: 1.34%.

Which “activity change, negative = inhibition” value does the source give for `Cc1ccc(S(=O)(=O)N(CC(=O)N/N=C/c2ccco2)Cc2ccccc2)cc1` here?
The value was inactive: 3.37%.

With `COc1ccc(C2/C(=C(/O)c3ccc(F)cc3)C(=O)C(=O)N2c2ccccn2)cc1OC` (configuration not stated) as the compound, how does the Potency read?
The Potency was inconclusive [inhibitor, single point].

For `Cc1nnc(SCc2ccc(Cl)c(Cl)c2)s1`, which “activity change, negative = inhibition” value is on record?
The value was inactive: 16.4%.

`Cc1[nH]c(=S)c(C#N)c(C)c1C(=O)Nc1ccccc1` was tested. Which Potency did it give?
The Potency was inconclusive [inhibitor, single point].

For `Cc1cccc(OCCSc2nc(-c3cccs3)nc3cc(=O)[nH]n23)c1`, which Potency is on record?
Its Potency is inconclusive [inhibitor, single point].

How did the Potency turn out when `CCc1nc2ccc(C(=O)N(C)C(C)C)cn2c1N(CCC(C)C)CCN(C)C` was run?
Its Potency is inconclusive [inhibitor, partial curve].

`COCCn1c(=O)sc2ccccc2c1=O` was tested. Which Potency did it give?
Its Potency is inconclusive [inhibitor, single point].

For `O=C(O)C(Cc1ccccc1[N+](=O)[O-])N1C(=O)c2ccccc2C1=O` (configuration not stated), which Potency is on record?
Its Potency is inconclusive [inhibitor, single point].

Which Potency does the source give for `CCOc1ccc2ccccc2c1C1NC(=O)NC(C)=C1C(=O)OCCOC` (configuration not stated) here?
Its Potency is inconclusive [inhibitor, single point].

How did the “activity change, negative = inhibition” value turn out when `CC(C)(C)c1ccc(-c2csc(NNC3=NCCCCC3)n2)cc1` was run?
Its value is inactive: 14.4%.

`N#Cc1ccc(OCC(O)CN2CCC(C(O)(c3ccccc3)c3ccccc3)CC2)cc1` (configuration not stated) was tested. Which “activity change, negative = inhibition” value did it give?
The value was inactive: 5.42%.

Which Potency does the source give for `CCOC(=O)Cn1c(=O)oc2ccc(C)cc21` here?
Its Potency is inconclusive [inhibitor, single point].

With `O=C(CCS(=O)(=O)c1ccc(Br)cc1)Nc1ccc(Cl)c(C(F)(F)F)c1` as the compound, how does the “activity change, negative = inhibition” value read?
Its value is inactive: -28%.

For `Cc1cc(C)c(NC(=O)CN2C(=O)c3cccnc3Oc3ccc(C)cc32)c(C)c1`, which Potency is on record?
Its Potency is inconclusive [inhibitor, partial curve, poor fit].

`CC(C)(C)OC(=O)N1CCC(c2cc(=O)n3[nH]cc(C(=O)Nc4ccc(F)c(Cl)c4)c3n2)CC1` was tested. Which Potency did it give?
Its Potency is inconclusive [inhibitor, single point].

`COc1ccc(C2=CSC(/N=C/c3ccc(F)cc3)=NN2)cc1` was tested. Which Potency did it give?
The Potency was inconclusive [inhibitor, single point].

`Cc1c(NC2(C#N)CCCCC2)c(=O)n(-c2ccccc2)n1C` was tested. Which Potency did it give?
The Potency was inconclusive [inhibitor, single point].

How did the Potency turn out when `Cn1c(N)c(C(=O)COC(=O)c2cc(-c3ccco3)nc3ccccc23)c(=O)n(C)c1=O` was run?
Its Potency is active: 7.94 µM.

How did the “activity change, negative = inhibition” value turn out when `CCCCOc1ccc(C2C3CN(C(=O)OCC)CC=C3C(C#N)=C(N)C2(C#N)C#N)cc1OC` (configuration not stated) was run?
The value was inactive: 3.81%.

Which Potency does the source give for `Cc1cc2sc3ccccc3c(=O)c2c(C)c1O` here?
The Potency was inconclusive [inhibitor, partial curve].

Which Potency does the source give for `Cc1nc(NN)c2c3c(sc2n1)COC(C)(C)C3` here?
The Potency was inconclusive [inhibitor, single point].

With `Nc1cc(C(=O)O)ccc1Nc1ccccc1` as the compound, how does the Potency read?
The Potency was inconclusive [inhibitor, single point].

For `COc1cc(/C=C/CN2CCC(CO)(CC3CCCCO3)CC2)ccc1O` (configuration not stated), which Potency is on record?
The Potency was inconclusive [inhibitor, single point].

Which Potency does the source give for `S=c1[nH]nc(-c2cc(-c3ccco3)[nH]n2)n1-c1cccc2ccccc12` here?
Its Potency is inconclusive [inhibitor, single point].

Which Potency does the source give for `O=C(O)c1ccc(-n2cccc2/C=C2/NC(=O)N(c3ccccc3)C2=O)cc1` here?
Its Potency is active: 10 µM.

Which Potency does the source give for `CCN(CCNCC(O)COCc1ccc(Cl)cc1)c1cccc(C)c1` (configuration not stated) here?
Its Potency is inconclusive [inhibitor, partial curve, poor fit].

Which Potency does the source give for `CCc1ccccc1NC(=O)CSC1=Nc2ccccc2C2=NC(Cc3ccccc3)C(=O)N12` (configuration not stated) here?
Its Potency is inconclusive [inhibitor, single point].

How did the Potency turn out when `Cc1cccc(N/N=C/c2ccccc2O)c1` was run?
Its Potency is inconclusive [inhibitor, single point].

Which Potency does the source give for `CCC(C)Nc1nc(N)c([N+](=O)[O-])c(Nc2ccccc2OC)n1` (configuration not stated) here?
The Potency was inconclusive [inhibitor, single point].

For `O=C(NCc1ccccc1)c1ccc(/C=N/O)nc1`, which “activity change, negative = inhibition” value is on record?
Its value is inactive: 33%.

For `Cc1noc(C(=O)N2CCN(c3ccccc3)CC2)c1Cl`, which “activity change, negative = inhibition” value is on record?
The value was inactive: 5.42%.

For `CCCCCC(O)CCC(=O)NNC1=CC(=O)CC(C)(C)C1` (configuration not stated), which Potency is on record?
The Potency was inconclusive [inhibitor, partial curve].

`N#Cc1cc2c([nH]c1=S)CCCC2` was tested. Which Potency did it give?
Its Potency is inconclusive [inhibitor, single point].

For `O=C(c1csc(Nc2ccccc2Cl)n1)N1CCCC1`, which “activity change, negative = inhibition” value is on record?
The value was inactive: 22.9%.

How did the Potency turn out when `O=C(O)CCn1cc(/C=C\C(=O)c2ccc(Cl)cc2)c(-c2cccc(Br)c2)n1` was run?
Its Potency is inconclusive [inhibitor, single point].

How did the Potency turn out when `O=C1C=C(O)c2[nH]c(=O)ccc2C1=O` was run?
The Potency was inconclusive [inhibitor, partial curve].

With `CCOC(=O)C1=C(C)N=c2s/c(=C/c3ccc(OCC(=O)O)c(OC)c3)c(=O)n2C1c1ccc(Cl)cc1` (configuration not stated) as the compound, how does the Potency read?
Its Potency is inconclusive [inhibitor, single point].

How did the Potency turn out when `O=C(N/N=C/c1ccc(N2CCOCC2)o1)c1cccc(C(F)(F)F)c1` was run?
The Potency was inconclusive [inhibitor, single point].

With `Cc1coc2c(O)cc3c(c12)OC1(N2CCCCC2)C(=O)NCCCC31` (configuration not stated) as the compound, how does the Potency read?
Its Potency is inconclusive [inhibitor, single point].

How did the Potency turn out when `Oc1c(CN2CCOCC2)ccc(CN2CCOCC2)c1O` was run?
The Potency was inconclusive [inhibitor, single point].
